In all, about 140,000 compounds went through this assay and about 240 (0.17%) were called active. The shares of active, inactive and inconclusive entries below differ from those in the screen. The call rests on the fitted dose curve; in most records, active means well fitted inhibition curve with a large enough effect; inconclusive means small, poorly fitted or top-dose-only effect; inactive means no such curve, though single readings can be large or run the other way. Potencies beside an inconclusive call are fits to weak or partial responses and may not hold up.
experiment: Primary qHTS assay for inhibitors of alpha-synuclein gene (SNCA) expression; conditions: HEK-293 SNCA-luciferase knock-in, luminescence, 24 h; activity change, negative = inhibition: at 57.2 µM (top of the series) unless noted; further: nearly all actives have a fitted effect of over 45% in size;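 on activity change, negative = inhibition: plate controls were DMSO cells for no effect and cell-free wells for full effect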
Potency means the concentration at half of the fitted maximal effect; tags describe the fitted curve by direction and shape.

SMILES	Potency	activity change, negative = inhibition
CCOc1ccc(C2=C(C(=O)CC)Sc3nncn3N2C(=O)CC)cc1	inconclusive: 31.6 µM [inhibitor, partial curve, poor fit]	
O=C(Cc1ccc(F)cc1)NCc1nnc2c(-c3nc(C4CC4)no3)cccn12	inconclusive: 39.8 µM [inhibitor, partial curve, poor fit]	
CC(=O)N1CCC(NC[C@@H]2C=C(C)[C@H](Cc3nc4ccc(F)cc4[nH]3)C[C@H]2C(C)C)CC1		inactive: -7.45%
Cc1ccc(C(=O)N[C@H]2CO[C@H]3[C@@H]2OC[C@@H]3n2nnnc2Oc2ccccc2)cc1	inconclusive: 44.7 µM [inhibitor, partial curve, poor fit]	
CCc1ccccc1N1C(=O)N(CC(=O)c2ccc(Cl)cc2)c2ccccc2S1(=O)=O	inconclusive: 10 µM [inhibitor, single point]	
COCCNC(=O)C1CCCN(Cc2cccc(-c3ccccc3OC)c2)C1 (configuration not stated)		inactive: -13.2%
Cc1ccc(CNC(=O)CCc2ccc3c(c2)CN(C(=O)NC(C)C)CCO3)o1	inconclusive: 39.8 µM [inhibitor, single point]	
COc1ccc(NC(=O)C2CN(c3ccnc4ccnn34)C2)cc1		inactive: -9.07%
CC(C)CCN1CCC(O)(c2csc(CN3CCc4ccccc4C3)n2)CC1		inactive: -19.2% [at 87.6 µM]
COc1cc(N2CCC(O)CC2)ccc1Nc1cc(Nc2ccccc2S(=O)(=O)C(C)C)c2cc[nH]c2n1	inconclusive: 42.8 µM [inhibitor, single point]	
COCCN1CCOc2nc(-c3cc4ccccc4o3)ncc2C1=O	active: 8.91 µM	
O=C1[C@@H]2C[C@@H](CN2C2CCCC2)Oc2ccccc2N1Cc1ccccc1		inactive: -12% [at 87.6 µM]
CCOC(=O)Cn1c(=O)oc2cc(S(=O)(=O)N3CCCC(C)C3)ccc21 (configuration not stated)	inconclusive: 39.8 µM [inhibitor, single point]	
CC(=O)N1c2c(cc(Br)cc2S(=O)(=O)Nc2ccc(OC(F)(F)F)cc2)CC1C (configuration not stated)	inconclusive: 39.8 µM [inhibitor, single point]	
CCCC1=Nc2cc(C(=O)NCC(C)c3ccccc3)ccc2Sc2ccccc21 (configuration not stated)	inconclusive: 31.6 µM [inhibitor, single point]	
COCCOC1CCN(C(=O)C2(c3ccccc3)CC2)CC1	inconclusive: 11.2 µM [inhibitor, partial curve, poor fit]	
COc1ccc(Cn2c(C3CCN(C(=O)c4ccccc4F)CC3)n[nH]c2=O)cc1	inconclusive: 12.6 µM [inhibitor, partial curve, poor fit]	
CNC(=O)N1CCC(Oc2ccccc2-c2nc(C3CC3)no2)C1 (configuration not stated)	inconclusive: 39.8 µM [inhibitor, single point]	
Cc1ccc(C2c3c(-c4ccccc4O)n[nH]c3C(=O)N2CCc2ccccc2)cc1 (configuration not stated)	inconclusive: 12.6 µM [inhibitor, partial curve, poor fit]	
CN(Cc1ccc(F)cc1)C1CCCc2ccccc21 (configuration not stated)		inactive: 9.7% [at 87.6 µM]
CC1CCN(c2ccc(CNC(=O)C(C)C3CCOCC3)cc2)CC1 (configuration not stated)		inactive: 28.6%
COc1ccc(NC(=O)c2ccc(-c3ncc4cnc(C5=CCOCC5)cn34)cc2)cn1		inactive: 4.72% [at 87.6 µM]
Cc1ccc(Cl)cc1N1CCN(S(=O)(=O)c2ccc(-c3cnc(C4CC4)o3)cc2)CC1	inconclusive: 39.8 µM [inhibitor, single point]	

SMILES	Potency	activity change, negative = inhibition
O=C(NCCC1CCN(C(=O)Nc2ccccc2F)CC1)c1cccs1		inactive: 39.3%
COC(=O)c1sccc1S(=O)(=O)N1CCN(c2ccc(C(C)=O)cc2)CC1		inactive: 32.8%
Cn1nc(CN2CCOCC2)c2c1CCN(S(=O)(=O)c1ccc3c(c1)CCC3)C2		inactive: 16.2%
Cc1ccc(Cn2c(CN3CCC(C(=O)NCC(C)c4ccccc4)CC3)cc3ccccc32)cc1 (configuration not stated)	inconclusive: 12.6 µM [inhibitor, partial curve]	
c1cnc(N2CCN(Cc3ccc4c(c3)OCO4)CC2)nc1	inconclusive: 1 µM [inhibitor, full curve, poor fit]	
Cc1ccccc1CNC(=O)CCc1ccnc(N2CCOCC2)c1		inactive: 2.5%
CN(C)CCNC(=O)c1cnc2c(c1)N(Cc1ccccc1)CCC2		inactive: -17.7% [at 87.6 µM]
CCCN(CC1CC1)C(=O)CCC1CCN(S(=O)(=O)c2ccccc2)CC1	inconclusive: 11.2 µM [inhibitor, partial curve, poor fit]	
COc1cccc(-c2cccc(C(=O)N3CCCC3C(=O)NCc3ccccc3)c2)c1 (configuration not stated)		inactive: 9.8%
CCCOc1ccc(-c2cccc(NS(=O)(=O)c3ccc(CC)cc3)c2)nn1	inconclusive: 39.8 µM [inhibitor, single point]	
Cc1ccccc1CN1C[C@@H]2C[C@H]1C(=O)N(C)c1ccccc1O2		inactive: 5.08% [at 87.6 µM]
O=C(NC1CC1)c1ccc2nnc(-c3ccc(F)cc3)n2c1		inactive: 7.58% [at 87.6 µM]
CCOc1ccc(C(=O)N[C@H]2CC[C@H]2NC2CCOCC2)cc1Cl	inconclusive: 28.2 µM [inhibitor, single point]	
Cc1ccc(CNC(=O)C2(CCO)CCN(c3ncccn3)C2)o1 (configuration not stated)		inactive: -22.3%
COc1cccc(NC(=O)C2CCCN2S(=O)(=O)c2ccc3nc(-c4ccccc4)[nH]c3c2)c1 (configuration not stated)	inconclusive: 39.8 µM [inhibitor, single point]	
CCc1cccc(NC(=O)C(Cc2ccccc2)NS(=O)(=O)c2ccc3c(c2)c(=O)n(C)c(=O)n3C)c1 (configuration not stated)	inconclusive: 7.08 µM [inhibitor, single point]	
O=C(N1CCC(C(=O)N2CCc3ccccc32)CC1)N1CC2CC(C1)[C@H]1CCCC(=O)N1C2 (some centres not stated)		inactive: 29.5%
Cn1cc(CN2C[C@H](C(=O)Nc3ccccc3)C[C@H]2c2cccc(C(F)(F)F)c2)cn1	inconclusive: 39.8 µM [inhibitor, partial curve, poor fit]	
CN1C(=O)CC(C(=O)O)C12CCN(C(=O)C1(c3ccccc3)CC1)CC2 (configuration not stated)	inconclusive: 7.08 µM [inhibitor, single point]	
CC(=O)Nc1ccc(S(=O)(=O)Nc2nc3n(n2)C(c2ccccc2)C=C(c2ccc(Cl)cc2)N3)cc1 (configuration not stated)	inconclusive: 2.82 µM [inhibitor, single point]	
O=C1CCN(S(=O)(=O)c2ccccc2)CCCN(C(=O)c2ccco2)CCN1	inconclusive: 22.4 µM [inhibitor, single point]	
COc1ccccc1CNC(=O)CCC(=O)N1Cc2ccccc2Oc2ncccc21	inconclusive: 39.8 µM [inhibitor, single point]	
Cc1ccc(NC(=O)N[C@@H](Cc2ccccc2)C(=O)N2CCCOCCNC(=O)CC2)cc1C		inactive: -0.344%

SMILES	Potency	activity change, negative = inhibition
CC(C)c1ccc(CNC(=O)C2Cn3cccc3C(=O)N2)cc1 (configuration not stated)		inactive: 7.17%
O=C(NCCN1CCCCC1)c1ccc(Cn2c(SCc3ccc(F)cc3)nc3cccnc32)cc1	inconclusive: 7.08 µM [inhibitor, single point]	
COc1ccc(Cn2c(C3CCN(C(=O)c4ccc(C)c(F)c4)CC3)n[nH]c2=O)cc1	inconclusive: 8.91 µM [inhibitor, single point]	
COc1ccc(C(=O)N2CCC3(CC2)CC(c2cccc(C(F)(F)F)c2)=NO3)cc1		inactive: -18.8%
OCC1CN(C2CCC2)CC12CCN(Cc1cc(F)ccc1F)CC2 (configuration not stated)	inconclusive: 15.8 µM [inhibitor, partial curve, poor fit]	
COCc1nc(NCc2cn3cc(C)sc3n2)cc(C2CC(N)C2)n1 (configuration not stated)		inactive: 6.33%
CN1CCc2nc3sc(C(=O)Nc4c(F)cccc4F)c(N)c3cc2C1		inactive: 183%
O=C(NCc1ccccc1)N1CCCC(c2nccn2CC2CCC2)C1 (configuration not stated)	inconclusive: 39.8 µM [inhibitor, single point]	
C#CCNC(=O)c1nc(-c2ccc(Cl)cc2)c2ccccn12		inactive: 116% [at 87.6 µM]
COc1ccc(NS(=O)(=O)c2ccc3c(c2)oc(=O)n3C)cc1Cl	inconclusive: 39.8 µM [inhibitor, single point]	
O=C(c1cccc(F)c1F)N1CCOc2ccc(CN3CCN(c4ccccn4)CC3)cc2C1	inconclusive: 39.8 µM [inhibitor, single point]	
O=C(Nc1cccc(F)c1)[C@@H]1C[C@@H](c2ccc(F)cc2)N([S+](=O)([O-])c2ccccc2)C1	inconclusive: 17.8 µM [inhibitor, partial curve, poor fit]	
CCc1ccc(CNC(=O)c2ccc3c(c2)N(C)C2CCCCN2C3=O)cc1 (configuration not stated)	inconclusive: 5.62 µM [inhibitor, full curve, poor fit]	
COc1ccc(-c2cc(C[C@H]3CNCC[C@H]3CC(=O)N3CCC(Cc4ccccc4)CC3)no2)cc1		inactive: -8.99%
O=c1c(-c2ccc(F)cc2)nc2cnc(Oc3ccccc3)nc2n1C1CC1		inactive: 3.98%
Cc1cc(C)cc(N(C)S(=O)(=O)c2nnc(NC(=O)COc3ccc(Cl)cc3)s2)c1	inconclusive: 1.26 µM [inhibitor, full curve, poor fit]	
Cc1ccc(N2CCN(c3cc(C)nc4c(-c5ccc(Cl)cc5)c(C)nn34)CC2C)cc1 (configuration not stated)	inconclusive: 7.08 µM [inhibitor, single point]	
C[S+](=O)([O-])N1CCCC2(Cc3ccccc3CN2C(=O)c2ccc(Cl)cc2)C1 (configuration not stated)	inconclusive: 39.8 µM [inhibitor, single point]	
Cc1cccc(CNc2ncnc3ccc(-c4ccoc4)cc23)c1	inconclusive: 1.78 µM [inhibitor, partial curve, poor fit]	
Cc1cccc(NC(=O)Cn2nc3n(c2=O)CCCC3)c1C	inconclusive: 4.47 µM [inhibitor, partial curve, poor fit]	
COCCn1nc2n(c1=O)CCN(C(=O)c1cc(F)ccc1F)CC2		inactive: -4.07%

Reference: PubChem BioAssay AID1671194 (National Center for Advancing Translational Sciences (NCATS), 2021)
